Measurements from the supplement of paper PMC4166925.
± gives the standard deviation of the averaged measurements. The full ranking holds about 33,000 sequences; the median of “E-score (dimensionless, -0.5 to 0.5)” is about -0.046, and the highest 2% start at about 0.36. This is one part of the list.

system: T1, SpTbr T-box DNA-binding domain (GST fusion); assay: PBM E-score of 8-mer (E-score (dimensionless, -0.5 to 0.5)); Tbr is Tbrain of the sea star Patiria miniata (Pm) or the sea urchin Strongylocentrotus purpuratus (Sp); higher = stronger binding preference; most listed sequences are background and not binding sites; details: the construct has about 5 more residues each side
T1 sequence: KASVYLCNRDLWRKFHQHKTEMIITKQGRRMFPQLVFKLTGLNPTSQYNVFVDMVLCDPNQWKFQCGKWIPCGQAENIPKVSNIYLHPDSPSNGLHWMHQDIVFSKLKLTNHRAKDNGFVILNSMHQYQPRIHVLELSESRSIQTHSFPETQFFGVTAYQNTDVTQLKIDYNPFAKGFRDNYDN
How it was run: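 GST-fused Tbr T-box DNA-binding domains (the whole T-box plus about five flanking residues) were expressed in BL21 E. coli at 20 °C and purified by glutathione affinity chromatography. Universal Agilent oligonucleotide arrays were made double-stranded by primer extension, incubated with 200 nM protein in PBS (pH 7.5), then scanned and quantified. Every ungapped 8-mer was scored from probe intensities. The Universal PBM Analysis Suite gave each word an enrichment E-score, averaged over duplicate arrays.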

In order of falling “PBM E-score of 8-mer” value:
1. CGGTGTGA  0.456 ± 0.0098
2. ACACCCGA  0.41 ± 0.0072
3. TAGTGTCA  0.395 ± 0.032
4. GGTTGACA  0.382 ± 0.017
5. ATCTGTGA  0.31 ± 0.0036
6. CACACCGA  0.291 ± 0.036
7. AGGGCGTG  0.281 ± 0.01
8. GTAGACAC  0.255 ± 0.016
9. CCATTCAC  0.24 ± 0.027
10. CATTGACA  0.236 ± 0.066
11. CGTTTACA  0.235 ± 0.029
12. CCCCAACA  0.232 ± 0.047
13. CGTTATCA  0.223 ± 0.079
14. ACGCGAGA  0.219 ± 0.016
15. AACGCCAT  0.199 ± 0.029
16. CGGTAACG  0.19 ± 0.045
17. CATCACAG  0.184 ± 0.0071
18. GTGAAGCA  0.141 ± 0.0029
19. CGTCGTTC  0.134 ± 0.022
20. CAACCATG  0.134 ± 0.032
21. CGTAAGGA  0.132 ± 0.043
22. GTGACGTA  0.123 ± 0.029
23. AGTGAAGG  0.119 ± 0.032
24. CTAGCGAA  0.115 ± 0.023
25. GAGGTTGC  0.114 ± 0.063
26. CCAACGCG  0.107 ± 0.039
27. CATGCGAG  0.106 ± 0.012
28. AGTGCCGC  0.104 ± 0.016
29. ATTGCCAA  0.102 ± 0.047
30. CCGCGGCA  0.1 ± 0.067
31. ACTCGTTG  0.09144 ± 0.00069
32. CACTCTAC  0.0875 ± 0.014
33. CGAGAGAA  0.0858 ± 0.029
34. ACCAACCA  0.0847 ± 0.0076
35. TGTTCGAA  0.0771 ± 0.019
36. CGCTCTCA  0.0769 ± 0.043
37. CGAGGCAC  0.0764 ± 0.042
38. CACTGATA  0.0724 ± 0.051
39. CCTGGGGA  0.0714 ± 0.018
40. CAAGTCAA  0.0648 ± 0.039
41. CGCTTCCC  0.0609 ± 0.082
42. CGCCCGGC  0.0599 ± 0.078
43. GTGGCTCA  0.0493 ± 0.011
44. CATTCAGG  0.0471 ± 0.042
45. CCACCAAA  0.0467 ± 0.057
46. CGCCCCGA  0.0439 ± 0.0082
47. CTTCCGTC  0.0392 ± 0.058
48. AACATGAA  0.0383 ± 0.048
49. CCTCTCCC  0.0362 ± 0.0014
50. CGTATGAG  0.035 ± 0.042
51. GAAGCGGA  0.0338 ± 0.064
52. CCAGTCGC  0.0261 ± 0.0086
53. CTTGCTAA  0.0253 ± 0.12
54. CAAGAGCG  0.0244 ± 0.094
55. TACAGTAA  0.00315 ± 0.044
56. GGCTCACC  0.00165 ± 0.028
57. ATTTTAAC  -0.00251 ± 0.09
58. ACTCGGCG  -0.00275 ± 0.1
59. GCCAAAGA  -0.00282 ± 0.078
60. GCAAACGA  -0.00505 ± 0.014
61. TGCAACAA  -0.00651 ± 0.095
62. AGAGCGGC  -0.0073 ± 0.081
63. ATGACGGG  -0.00892 ± 0.0049
64. ACATTCAT  -0.0127 ± 0.0095
65. AAAATCTG  -0.015 ± 0.025
66. CCCTTCGA  -0.0189 ± 0.0027
67. AGTATATG  -0.0228 ± 0.01
68. AAGCAATC  -0.0241 ± 0.019
69. AGCTTCAG  -0.0258 ± 0.022
70. CACGAAGG  -0.0263 ± 0.044
71. AAAGTAGC  -0.0267 ± 0.0034
72. ATCGGGCA  -0.0298 ± 0.0004
73. ACCACTGA  -0.0358 ± 0.066
74. AACGACGT  -0.0362 ± 0.0024
75. GACGGGTA  -0.0387 ± 0.015
76. GAAATCGA  -0.0416 ± 0.02
77. ATATAGTC  -0.0444 ± 0.027
78. CAGGTAAA  -0.0495 ± 0.055
79. ACAAGAGG  -0.0502 ± 0.064
80. ACCTACGA  -0.0518 ± 0.035
81. CCATCTAG  -0.0568 ± 0.011
82. CGTGTATC  -0.0584 ± 0.0034
83. ACATAACT  -0.0591 ± 0.004
84. CTCGTTTC  -0.0614 ± 0.019
85. CGGCCTAA  -0.0637 ± 0.029
86. GTGGGGTA  -0.0652 ± 0.013
87. AATGTGGA  -0.0688 ± 0.0046
88. GCTGCTAC  -0.0699 ± 0.14
89. GAGCAAAC  -0.0726 ± 0.047
90. AAGATTCC  -0.0742 ± 0.086
91. CCTCAGAA  -0.076 ± 0.04
92. GATGGGAA  -0.0808 ± 0.012
93. GCACAAAC  -0.0808 ± 0.0095
94. TACGTTGA  -0.0845 ± 0.015
95. GGCGAGCC  -0.0845 ± 0.068
96. ATAGGTTC  -0.0885 ± 0.014
97. ACCGATGC  -0.0885 ± 0.078
98. CTTATGAA  -0.0887 ± 0.019
99. CCCCCTAC  -0.0895 ± 0.036
100. ATTACATG  -0.0895 ± 0.061
101. AGCCAGGA  -0.0911 ± 0.039
102. ATCGATGA  -0.0913 ± 0.098
103. GGAACCGA  -0.0955 ± 0.0058
104. CCCATTAC  -0.0958 ± 0.0029
105. ACTCTGTA  -0.0995 ± 0.052
106. AGAATCCT  -0.101 ± 0.021
107. GTTCGAAA  -0.108 ± 0.0034
108. GGAGTACC  -0.109 ± 0.13
109. AAGTTTTA  -0.109 ± 0.015
110. ACCGTATG  -0.112 ± 0.066
111. CTATCTTC  -0.114 ± 0.011
112. ACCAAGAT  -0.115 ± 0.0078
113. GATACTGA  -0.116 ± 0.036
114. CCATGGGA  -0.117 ± 0.07
115. CCCGGCGA  -0.121 ± 0.072
116. AGAGTTCG  -0.121 ± 0.068
117. CATGAGAA  -0.122 ± 0.04
118. ACAGTCCA  -0.123 ± 0.0018
119. ATCTCCAG  -0.125 ± 0.028
120. CCCCTAAC  -0.1309 ± 0.00067
121. CCGTAATA  -0.133 ± 0.02
122. GAATGCGC  -0.136 ± 0.13
123. GGGCCGAC  -0.138 ± 0.094
124. AGGTTAAG  -0.139 ± 0.054
125. AAGACAGC  -0.14 ± 0.013
126. AAAGCACC  -0.146 ± 0.12
127. GCGGAGCC  -0.1458 ± 0.00053
128. CATAGGGC  -0.147 ± 0.017
129. ATCGAAGC  -0.147 ± 0.031
130. GATGGGCA  -0.147 ± 0.056
131. ATAAGATG  -0.148 ± 0.069
132. TAGTAGCA  -0.149 ± 0.078
133. AGAAAATG  -0.151 ± 0.052
134. CCGGGGCA  -0.152 ± 0.019
135. CATCGATC  -0.152 ± 0.13
136. CCTGGGTA  -0.162 ± 0.032
137. ACAGGGAT  -0.165 ± 0.057
138. CAGGCCTA  -0.166 ± 0.014
139. GCTGAGCC  -0.168 ± 0.088
140. CGGTGGTC  -0.17 ± 0.031
141. ATGACCAT  -0.171 ± 0.015
142. ACCAGCAG  -0.175 ± 0.0041
143. CCAATGAA  -0.176 ± 0.028
144. AACCCCCT  -0.177 ± 0.046
145. GCTGAACC  -0.192 ± 0.034
146. CCTGAAGG  -0.195 ± 0.053
147. AGTTCCAG  -0.201 ± 0.0053
148. TCAAACCA  -0.203 ± 0.059
149. CCCTCGTA  -0.2057 ± 0.00097
150. TCCCGGAA  -0.207 ± 0.042
151. GGAATTAC  -0.207 ± 0.056
152. AGAACTCC  -0.209 ± 0.051
153. AGATGAAA  -0.212 ± 0.0059
154. GTATTAGA  -0.214 ± 0.02
155. AGCTTCAA  -0.215 ± 0.026
156. AAGAAAGG  -0.215 ± 0.021
157. ACAGGCAA  -0.22 ± 0.02
158. AATAGGAT  -0.223 ± 0.01
159. ATTCACCC  -0.224 ± 0.03
160. CTGCATGA  -0.225 ± 0.0059
161. GGTTCCTA  -0.228 ± 0.018
162. AGGACTAT  -0.234 ± 0.035
163. ATGACTAA  -0.237 ± 0.011
164. CAGACGCA  -0.238 ± 0.033
165. TAATGCTA  -0.25 ± 0.0095
166. AGCCCCAT  -0.258 ± 0.046
167. AGCTTGAG  -0.264 ± 0.045
168. CATGGAAG  -0.278 ± 0.023
169. ATGAAATC  -0.289 ± 0.0011
170. CAGGGACC  -0.289 ± 0.052
171. AAAACCCT  -0.29 ± 0.022
172. ATATGATC  -0.293 ± 0.016
